Source: the supplement of paper PMC5499739
Over roughly 16,000 sequences, “Z-score” has its median near -0.37; the highest 2% begin near 3.1. The list shows a part of the results.

system: RBM10 RRM1-ZnF-RRM2 (GST-tagged construct); experiment: RNAcompete 7-mer binding Z-score; higher = stronger binding preference
Outline: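 A one-sided Z-score for enrichment, taken across the probes containing each heptamer motif, was assigned to every such motif. The RNA came from a designed pool of 241 399 sequences up to 41 nt (1.5 nmol), bound by 20 pmol of GST-tagged RBM10 constructs in 1 ml Hepes pH 7.8 buffer with glutathione Sepharose beads for 30 min at 4°C. Four 2-min washes at 4°C preceded identification of bound RNA by microarray hybridisation.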

Sequence | RNAcompete 7-mer binding Z-score
GUGGCUG | 0.72
CGGAAUG | 1.33
UCGAGUC | -0.431
UCCUGGG | 0.341
UCUGUCC | -0.81
GAAGGGA | 4.75
CCAGUUG | -0.653
UCCGUUC | -0.73
AGUGGGU | 3.35
GGUUGAC | 1.02
CCUACAA | -0.774
AAGCUCC | -0.741
UCCUUAA | -0.715
CGUGCUG | -0.26
CUAUAGA | -0.577
AGGCUAG | 0.406
UAAUAGU | -0.0925
AGCUGAU | -0.227
UCGUUAA | -0.566
GCAAUUC | -0.457
UACCGCU | -0.843
GAUGGUA | 2.46
CAGGAGA | 2.02

Sequence | RNAcompete 7-mer binding Z-score
CCCGAGA | -0.57
GAACAAA | 0.235
AUAUGGA | 1.68
GCACUUG | -0.581
ACCAAAG | 0.0422
AUGUGAC | 0.239
CGUAAGA | -0.5
CUCGAUG | -0.435
GAGGCCA | 0.0495
CACGCGU | -0.311
AUUCGCU | -0.817
CUACAAA | -0.664
GGCUACC | -0.213
GAACCGC | -0.635
CAGCUUA | -0.741
UGAUGAA | 0.111
CCCACAC | -0.672
CUUAAGC | -0.89
CUGGUCU | -0.551
GUUCUAG | -0.358
GGCGAUU | 0.385
CUGUGAC | -0.599
GCAUAGG | 1.89

Sequence | RNAcompete 7-mer binding Z-score
UUGGUUA | 0.352
UCCUGUU | -0.73
AAGCCAC | -0.5
CCUAGUG | -0.355
CCUUGUC | -0.89
GAGAUUC | -0.246
UGCUCGC | -0.613
AGUGGGC | 2.96
GCCGCAU | -0.639
AUCAUCA | -0.519
CCGAAUU | -0.766
UGGGAAG | 3.99
GACUUGC | -0.887
AGCAGUU | -0.198
AUGAUUU | -0.668
GGUCAUU | 0.232
GGAUCUA | -0.271
AUCUACC | -0.843
AGUCGCC | -0.402
UCACAAC | -0.592
GCGGAGU | 1.32
ACCAGUA | -0.391
CUAUACA | -0.555

Sequence | RNAcompete 7-mer binding Z-score
GUAUGAC | 0.0896
AGGAUUA | 0.712
UGCUAGC | -0.57
AAGGGAA | 4.17
AAGGGGC | 3.1
CAGAAAA | -0.0306
GACCCCU | -0.872
GCUUCAA | -0.573
GGAGGCU | 1.29
GACAUGC | -0.322
CCCGCUG | -0.675
CCUCUGG | -0.53
UCAGGUU | 0.235
AUGGGUU | 2.86
ACAGGGC | 2.36
GGGCAAA | 2.09
GAUCCAC | -0.639
AGCUCCA | -0.726
GCGAGAA | 0.643
CGUCCUC | -0.861
CCCAACA | -0.675
AGGCAUG | 0.793
UAAAAUC | -0.694

Sequence | RNAcompete 7-mer binding Z-score
UACAGGC | 0.403
UUACGAA | -0.337
GUGGGUC | 2.4
GGUGAUG | 2.52
UUUCUUG | -0.723
UCCUAGC | -0.792
CAAGAUA | -0.333
GACAGCA | 0.272
CGUGGAC | 1.17
AACUAGC | -0.373
AUUUUUG | -0.602
GAGGAAA | 2.2
GAACUUG | -0.366
UUCUCAC | -0.726
CCCGCUU | -0.876
CGAUUGA | -0.286
CUGGACU | -0.515
AUUUAUU | -0.69
AAACCUA | -0.613
ACAGAUU | -0.242
AUUGAAG | 0.326
UCGCAAA | -0.646
CUCCCUU | -0.879

Sequence | RNAcompete 7-mer binding Z-score
AGACGUA | -0.162
AUUUUUC | -0.817
GAUGAAU | 0.585
UCCAGGA | 0.472
AAUACUA | -0.544
UUAGUAC | -0.479
AGAAAGC | -0.122
GGCGUUU | 0.0386
CGGAUAG | 1.59
CCACCUG | -0.726
UACUUCA | -0.719
AUACCUU | -0.897
UGCCUUC | -0.814
CGAUUUC | -0.788
CAGGUCC | -0.165
UCCAGUG | -0.224
GGGGCCC | 0.315
GGCAUAC | 0.162
UAAUCCU | -0.901
UGCCGCA | -0.562
ACGAAUG | 0.144
CUGAGGC | -0.0743
CUCCCGU | -0.613

Sequence | RNAcompete 7-mer binding Z-score
GAUCUUC | -0.755
GGGUAGA | 3.84
AAUAAGA | 0.0568
GCCAGCG | -0.0343
UCAAUGA | 0.0349
GUAUGAA | 0.355
GAUCCGC | -0.821
AAGGAUG | 3.89
GCCACUG | -0.555
UGUCAAC | -0.544
ACUCGAA | -0.504
GCACGCG | -0.0598
CCGCUGC | -0.482
GCCGUUG | -0.304
CGCCAUG | -0.628
UCCCUAU | -0.752
CUAAGUC | -0.573
AGAUGAC | 0.0532
CGUGAAC | -0.42
GCGAUAG | 0.811
CCUCUUU | -0.945
AACAACC | -0.69
GUCCCUG | -0.559

Sequence | RNAcompete 7-mer binding Z-score
AUCUCUG | -0.846
CAGUAUG | 0.17
AACGUCU | -0.599
GGAGUUG | 2.56
UCGUUCA | -0.508
UGUAACU | -0.358
GUAGUGC | 0.661
CGGGCAA | 1.02
CCUGGUA | -0.566
AGUUACC | -0.304
GCCGCUU | -0.923
GCACAUU | -0.409
UUCAUAU | -0.599
AGCCUAC | -0.919
CGCGCUC | -0.621
GAGAGUU | 0.396
GGCGACU | 0.425
CAGAUCC | -0.643
GUAUAAA | 0.0969
AGGGCAG | 2.3
UGAUAAA | -0.213
UCUCGCG | -0.679
